From patent US7271245B2, “Methods and compositions for inhibition of metastasis” (The Scripps Research Institute, priority 2004, dated 2007)

Target: T1, tumor cell integrin αvβ3 (Homo sapiens, UniProt P05106+P06756)
T1 construct: Primary metastatic cells from blood samples of stage IV breast cancer patients (BCM1, BCM2, BMS) were isolated; endogenous in cells; host or cells: BMS cells (primary metastatic breast cancer cells from patient blood)
Experiment: Flow cytometry, scFv binding to BMS cells in fresh human plasma
Conditions: saturable binding
Method: FIG. 4. Patient derived ligand mimetic scFvs Bc-12 and Bc-15 against activated αvβ3 are internalized and bind to breast cancer cells in human plasma and affect breast cancer survival. Flow cytometric analysis with human metastatic breast cancer cells (BMS) isolated from a patient blood sample. All binding and washing steps were done in fresh human plasma prepared from blood anticoagulated with 50 nM PPACK.
Flow cytometry. scFv binding to human tumor cells was analyzed by flow cytometry, initially with cloned scFv phage and then with purified scFv protein. Per sample, 2×10^5 tumor cells were blocked with goat serum and incubated either with scFv phage (2-5×10^10) (1 h at RT) followed by mouse anti-M13 mAb (Serotec) (30 min on ice) and goat FITC-anti mouse (Pierce) (30 min on ice), or with purified scFv (1.25 to 40 μg/ml, routinely 10 to 15 μg/ml) (45 min on ice), followed by mouse anti-FLAG mAb M2 (Sigma) (30 min on ice) and goat FITC-anti mouse. […] All samples were counter stained with propidium iodide (PI) and analyzed on a Becton-Dickinson FACScan, with live gate set to exclude PI positive cells.
Antimetastatic activity of scFv antibodies against activated αvβ3 inhibit hematogenous breast cancer metastasis in vivo. […] The antibodies bound the cells in a saturable manner with half maximal binding measured at 40 nM scFv (1 μg/ml) (FIG. 4).

T1 sequence (P06756 31-889 limits assumed): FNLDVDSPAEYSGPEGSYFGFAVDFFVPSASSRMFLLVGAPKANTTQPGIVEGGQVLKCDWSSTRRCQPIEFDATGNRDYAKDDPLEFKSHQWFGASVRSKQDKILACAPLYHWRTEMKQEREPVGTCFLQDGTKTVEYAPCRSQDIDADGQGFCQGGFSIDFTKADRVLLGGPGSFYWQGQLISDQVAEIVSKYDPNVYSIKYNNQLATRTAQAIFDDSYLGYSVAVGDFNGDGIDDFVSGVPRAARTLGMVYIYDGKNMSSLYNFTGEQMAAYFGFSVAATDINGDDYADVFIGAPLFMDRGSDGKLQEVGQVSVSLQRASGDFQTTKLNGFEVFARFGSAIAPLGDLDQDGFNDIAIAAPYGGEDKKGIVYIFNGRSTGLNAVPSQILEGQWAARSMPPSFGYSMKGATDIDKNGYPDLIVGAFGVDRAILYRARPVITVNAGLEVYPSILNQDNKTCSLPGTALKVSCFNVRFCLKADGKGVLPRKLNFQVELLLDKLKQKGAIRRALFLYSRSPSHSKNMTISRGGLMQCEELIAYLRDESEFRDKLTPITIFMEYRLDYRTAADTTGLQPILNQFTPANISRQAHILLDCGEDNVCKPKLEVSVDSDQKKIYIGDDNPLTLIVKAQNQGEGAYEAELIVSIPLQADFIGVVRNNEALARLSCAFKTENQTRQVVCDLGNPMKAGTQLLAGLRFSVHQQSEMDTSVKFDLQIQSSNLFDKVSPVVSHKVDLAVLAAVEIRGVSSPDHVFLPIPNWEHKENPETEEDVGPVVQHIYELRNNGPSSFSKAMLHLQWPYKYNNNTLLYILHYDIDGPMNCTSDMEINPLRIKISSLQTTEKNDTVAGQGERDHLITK
T1 sequence (P06756 891-1048 partner limits assumed): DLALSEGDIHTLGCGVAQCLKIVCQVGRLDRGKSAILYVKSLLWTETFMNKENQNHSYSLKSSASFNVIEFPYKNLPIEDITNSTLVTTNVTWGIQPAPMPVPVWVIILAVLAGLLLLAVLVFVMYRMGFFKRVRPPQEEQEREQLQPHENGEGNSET
T1 sequence (P05106 27-788): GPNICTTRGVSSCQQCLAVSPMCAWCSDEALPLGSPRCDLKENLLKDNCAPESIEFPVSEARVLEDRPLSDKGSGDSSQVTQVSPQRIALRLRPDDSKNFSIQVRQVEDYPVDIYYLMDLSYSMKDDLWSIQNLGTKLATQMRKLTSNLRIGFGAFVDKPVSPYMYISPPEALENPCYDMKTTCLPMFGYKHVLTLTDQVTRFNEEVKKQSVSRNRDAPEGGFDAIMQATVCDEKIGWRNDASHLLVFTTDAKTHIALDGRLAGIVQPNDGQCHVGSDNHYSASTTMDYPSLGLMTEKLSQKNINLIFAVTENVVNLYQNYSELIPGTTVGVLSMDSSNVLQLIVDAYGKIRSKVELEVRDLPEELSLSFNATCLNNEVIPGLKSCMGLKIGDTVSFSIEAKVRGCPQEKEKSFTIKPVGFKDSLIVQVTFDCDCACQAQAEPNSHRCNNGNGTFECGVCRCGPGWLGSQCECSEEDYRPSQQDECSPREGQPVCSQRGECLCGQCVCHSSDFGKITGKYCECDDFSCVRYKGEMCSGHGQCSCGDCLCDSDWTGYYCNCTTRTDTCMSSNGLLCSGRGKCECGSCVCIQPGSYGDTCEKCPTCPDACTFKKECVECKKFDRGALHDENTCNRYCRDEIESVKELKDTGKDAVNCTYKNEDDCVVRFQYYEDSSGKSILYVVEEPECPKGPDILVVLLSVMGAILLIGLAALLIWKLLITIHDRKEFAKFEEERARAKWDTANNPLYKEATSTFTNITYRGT

half maximal binding: 1 µg/mL | EC50 (read-out: half maximal binding): 0.04 µM
B1: Bc-15: patient derived human scFv antibody against activated αvβ3 with RGD motif in CDR-H3; cDNA ATCC PTA-6304 (protein)
scFv: MAQVQLVQSGAEVKEPGSSVKVSCKASGGTFSSYAIYWVRQAPGQGLEWMGWINPDSGDTNSAQQFQGRVTMTRDTSISTAYMELSRLRSDDTAMYYCARPPRGDGPDYWGQGTLVTVSSGGGGGS[letters of about 100 residues not shown]RGLGGLVDYKDDDDK
